Reference: publication PMC3416746 (Cytoskeleton (Hoboken, N.J.), 2012)

B1: full-length Bnr1 (natural protein)
chain: not shown
B2: full-length Bni1 (natural protein)
chain: not shown

Molecular target: the molecule itself
Test: hydrodynamic analysis

Protein | stoichiometry N
B1 | 2
B2 | 2
